Read counts are not given, so values of variants with three or more changes are uncertain.
B1: CPEB3 Ribozyme (parent)
chain: UAACAGGGGGCCACAGCAGAAGCGUUCACGUCGCAGCCCCUGUCAGAUUCUGGUGAAUCUGCGAAUUCUGCUGUAUAUCUC

Variants of: B1
Assay: self-cleavage, relative activity (ratio to wild type); higher = more cleavage; in vitro, sequencing
How it was run: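 Barcoded CPEB3 ribozyme mutants, produced by rounds of error-prone PCR, self-cleaved while being transcribed with T7 RNA polymerase for 5 hours at 37°C and during a subsequent 15 min DNase I step before EDTA was added. Sequencing of template-switched cDNA on Illumina gave cleaved and total reads, and DNA sequencing assigned barcodes to variants. Each variant's relative activity is its cleaved/total read fraction divided by the unmutated ribozyme's fraction, averaged across three batches. A variant needed a minimum of 5 reads.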

For U41A A45G U51C, which self-cleavage is on record?
Its self-cleavage is 0.09.

Which self-cleavage does the source give for U41A A64G U72C here?
Its self-cleavage is 0.11.

Which self-cleavage does the source give for C38U A45G U74A U76C here?
The self-cleavage was 1.11.

With C40U U51A G63A U76C as the variant, how does the self-cleavage read?
The self-cleavage was 0.38.

With C37U U49C A64G U66A A77U as the variant, how does the self-cleavage read?
The self-cleavage was 0.09.

Which self-cleavage does the source give for C40U U41A U54C C68A here?
The self-cleavage was 0.16.

Which self-cleavage does the source give for C38U C68U U69A A75U here?
The self-cleavage was 0.26.

With C38A U51A A56U as the variant, how does the self-cleavage read?
Its self-cleavage is 0.13.

For C37U C38U U48C, which self-cleavage is on record?
The self-cleavage was 0.18.

Which self-cleavage does the source give for C39U A45G U51A here?
Its self-cleavage is 0.37.

With U41A U43A U54A U69C U80C as the variant, how does the self-cleavage read?
Its self-cleavage is 0.19.

For C40A U49C A75U, which self-cleavage is on record?
The self-cleavage was 0.17.

For C39U G46A A64G, which self-cleavage is on record?
The self-cleavage was 0.14.

For U41A U58A U66C, which self-cleavage is on record?
Its self-cleavage is 0.44.

With C37U U43C U54G as the variant, how does the self-cleavage read?
Its self-cleavage is 0.25.

Which self-cleavage does the source give for C37U U48A U60C here?
The self-cleavage was 0.14.

Which self-cleavage does the source give for C38U A57C U80C here?
Its self-cleavage is 0.17.

For C38U U41C U49C, which self-cleavage is on record?
Its self-cleavage is 0.29.

For C40U U51A A57G, which self-cleavage is on record?
Its self-cleavage is 0.49.

With U41C A45U U60C as the variant, how does the self-cleavage read?
The self-cleavage was 0.38.

For C40A A45U A56U, which self-cleavage is on record?
The self-cleavage was 0.16.

Which self-cleavage does the source give for U41A U48C A75U here?
Its self-cleavage is 0.09.

Which self-cleavage does the source give for U41A A47U U76C here?
Its self-cleavage is 0.14.

With C40U U41A U48C G55U U80C as the variant, how does the self-cleavage read?
The self-cleavage was 0.2.

Which self-cleavage does the source give for C40G A45G U51A U60C A77U here?
Its self-cleavage is 0.14.

For U41A U43C A64G, which self-cleavage is on record?
Its self-cleavage is 0.47.

Which self-cleavage does the source give for U41C A45G U72C here?
Its self-cleavage is 1.05.

With U41A C50G U67A U80C as the variant, how does the self-cleavage read?
Its self-cleavage is 0.2.

Which self-cleavage does the source give for C40U U43C A57G U58C here?
The self-cleavage was 0.18.

With C40A A45G A56G U72C U80C as the variant, how does the self-cleavage read?
Its self-cleavage is 0.03.

For C38G U54C U67A, which self-cleavage is on record?
Its self-cleavage is 0.15.

Which self-cleavage does the source give for C40U A57G U58A here?
Its self-cleavage is 0.05.

With C40A A64G U66C as the variant, how does the self-cleavage read?
Its self-cleavage is 0.08.

For C39G U58C A64U U66C, which self-cleavage is on record?
The self-cleavage was 0.07.

With C38G A64G A65G A75U as the variant, how does the self-cleavage read?
Its self-cleavage is 0.17.

For C37U U54G A65G, which self-cleavage is on record?
The self-cleavage was 0.11.

For U41A U49C G73A, which self-cleavage is on record?
Its self-cleavage is 0.1.

With C37U A57G U67C as the variant, how does the self-cleavage read?
The self-cleavage was 0.14.

Which self-cleavage does the source give for U41A G53U U72C here?
The self-cleavage was 0.12.

For U41A U54C U60C C81A, which self-cleavage is on record?
The self-cleavage was 0.18.

For C40A U69A U72A, which self-cleavage is on record?
Its self-cleavage is 0.16.

Which self-cleavage does the source give for U41A A45U U54G U80C here?
Its self-cleavage is 0.43.

With U41A A47U U54A A64G as the variant, how does the self-cleavage read?
The self-cleavage was 0.09.

Which self-cleavage does the source give for C40U U58C G61A here?
Its self-cleavage is 0.16.

With C40A U43C U60A as the variant, how does the self-cleavage read?
The self-cleavage was 0.12.

Which self-cleavage does the source give for C39U U60A U69A here?
Its self-cleavage is 0.06.

Which self-cleavage does the source give for C40U A47G A64U U66A here?
The self-cleavage was 0.14.

For C39G U51C U66C U72G, which self-cleavage is on record?
Its self-cleavage is 0.12.

With U41A C62G U78A as the variant, how does the self-cleavage read?
Its self-cleavage is 0.06.

With U41C A45G U67A as the variant, how does the self-cleavage read?
Its self-cleavage is 0.52.

With C40U U43C U60C U72C as the variant, how does the self-cleavage read?
Its self-cleavage is 0.19.

Which self-cleavage does the source give for U41A U60C U72A here?
Its self-cleavage is 0.16.

With U41A U49C A57U U60C as the variant, how does the self-cleavage read?
The self-cleavage was 0.16.

For U41A U60A U67C, which self-cleavage is on record?
Its self-cleavage is 0.13.

For C40U A57U U72A, which self-cleavage is on record?
The self-cleavage was 0.15.

Which self-cleavage does the source give for U41A U60C C81G here?
Its self-cleavage is 0.19.

With C40G U41A A75G as the variant, how does the self-cleavage read?
Its self-cleavage is 0.15.

With U41A C44U U72A as the variant, how does the self-cleavage read?
The self-cleavage was 0.23.

For U41C A45C A56G A57G, which self-cleavage is on record?
Its self-cleavage is 0.19.

With C37U U67C U76A A77C as the variant, how does the self-cleavage read?
The self-cleavage was 0.1.

Which self-cleavage does the source give for C38U U60A U66A A75U here?
Its self-cleavage is 0.09.

With C38G U41A A56U U80A as the variant, how does the self-cleavage read?
The self-cleavage was 0.05.

With U41C A45G U58C A65G as the variant, how does the self-cleavage read?
The self-cleavage was 0.16.

With U41A G52A G73A as the variant, how does the self-cleavage read?
The self-cleavage was 0.4.

With U41C A45U U51C as the variant, how does the self-cleavage read?
The self-cleavage was 0.6.

Which self-cleavage does the source give for C38U U41C U51C A64G here?
Its self-cleavage is 0.51.

With C38U C40U G52A as the variant, how does the self-cleavage read?
Its self-cleavage is 0.16.

Which self-cleavage does the source give for C38A U48C A57G U60A A65G here?
The self-cleavage was 0.13.

With C37U U51A A77G as the variant, how does the self-cleavage read?
The self-cleavage was 0.35.

With U41A A47G C62U as the variant, how does the self-cleavage read?
Its self-cleavage is 0.22.

Which self-cleavage does the source give for C40G G61A A65U here?
Its self-cleavage is 0.13.

With C39U U49C U72C as the variant, how does the self-cleavage read?
The self-cleavage was 0.26.

Which self-cleavage does the source give for U41A G42U U43C U72C here?
The self-cleavage was 0.07.

Which self-cleavage does the source give for C37U C38G A64G here?
Its self-cleavage is 0.11.

For C37U U41A A57U, which self-cleavage is on record?
Its self-cleavage is 0.33.

For C39G U43C U58A U80C, which self-cleavage is on record?
The self-cleavage was 0.17.

For C38A G61U U80C, which self-cleavage is on record?
Its self-cleavage is 0.23.

For C40G G52C U80A, which self-cleavage is on record?
Its self-cleavage is 0.09.

With U41A A45G U54C U60A as the variant, how does the self-cleavage read?
Its self-cleavage is 0.15.

Which self-cleavage does the source give for U41A U60C U76A here?
The self-cleavage was 0.07.

With U41C A47G A64G U66C as the variant, how does the self-cleavage read?
Its self-cleavage is 0.52.

With C40A U43G U60C A65G as the variant, how does the self-cleavage read?
The self-cleavage was 0.26.

With U41A U51A A57G as the variant, how does the self-cleavage read?
Its self-cleavage is 0.21.

From the RNAGym collection of RNA variant scans (doi:10.1093/nar/gkz1192)
